Assay results: patent publication US10238748B2, “Anti-CDH6 antibody drug conjugates” (Novartis AG, priority 2014, dated 2019)

Test system: OVCAR-3 ovarian xenograft
Assay: OVCAR-3 ovarian xenograft mouse model
Conditions: SMCC-DM1 conjugates, single i.v. dose 10 mg/kg, second selection, FIG. 14
Description: The anti-tumor activity of a selection of anti-CDH6 ADCs were evaluated in the OVCAR-3 ovarian xenograft model. Female NOD-scid-gamma mice were implanted subcutaneously on the right flank with 10×10^6 OVCAR-3 cells containing 50% Matrigel™ (BD Biosciences) in phosphate buffer solution (PBS). The total injection volume containing cells in suspension was 200 μl. Mice were enrolled in the study 29 days post implantation with average tumor volume of 165 mm^3. After being randomly assigned to one of seven groups (n=4/group), mice were administered a single i.v. dose of PBS (10 ml/kg), a non-target isotype control hIgG1-SMCC-DM1 (10 mg/kg), or one of five anti-CDH6-SMCC-DM1 (10 mg/kg). Tumor volumes and body weights were measured twice weekly.
The anti-tumor activity of a second selection of anti-CDH6 ADCs were evaluated in the OVCAR-3 ovarian xenograft model. […] Tumor volumes and body weights were measured twice weekly.
The anti-tumor activity of a selection of anti-CDH6 ADCs were evaluated in the OVCAR-3 ovarian xenograft model. […] Tumor volumes and body weights were measured 1-2 times weekly.
Female NOD-scid-gamma mice were implanted subcutaneously on the right flank with 10×10^6 OVCAR-3 cells containing 50% Matrigel™ (BD Biosciences, San Jose, Calif.) in PBS. […] Tumor volumes and body weights were measured 1-2 times weekly. […]

B1: NOV0690: anti-CDH6 human IgG1 selected from HuCAL PLATINUM phage display; parent of NOV1126 (antibody)
heavy: QVQLLESGGGLVQPGGSLRLSCAASGFTFSDHAIDWVRQAPGKGLEWVSVIAGDGSITYYADSVKGRFTISRDNSKNTLYLQMNSLRAEDTAVYYCARDTGVYREYMDVWGQGTLVTVSSASTKGPSVFPLAPSSKSTSGGTAALGCLVKDYFPEPVTVSWNSGALTSGVHTFPAVLQSSGLYSLSSVVTVPSSSLGTQTYICNVNHKPSNTKVDKRV[sequence of human IgG1 Fc not given]
light: DIELTQPPSVSVSPGQTASITCSGDAIGTKFAHWYQQKPGQAPVLVIYYDHERPSGIPERFSGSNSGNTATLTISGTQAEDEADYYCYSRASSNLVFGGGTKLTVLGQPKAAPSVTLFPPSSEELQANKATLVCLISDFYPGAVTVAWKADSSPVKAGVETTTPSKQSNNKYAASSYLSLTPEQWKSHRSYSCQVTHEGSTVEKTVAPTECS
B1 was tested. Which anti-tumor response did it give?
The anti-tumor response was “elicited a response comparable to that of NOV0712-SMCC-DM1”.
